Our source for the enrichment values is the supplement of paper PMC12230231.

± gives the standard deviation of the averaged measurements. Restriction of a single-cycle SIVsab GFP reporter by TRIM5α v1-loop variants in CRFK cells. Human variants: read share among cells still uninfected after two challenges over input, higher = gained restriction. Rhesus variants: share among infected cells over input, higher = lost restriction. Reporter dose not given per row. No active / inactive call per row; the paper calls a change when both replicates lie above its controls (mean + 2 SD of stop or wild-type variants, or the top frameshift score). Residues outside the varied loop are taken from Swiss-Prot. The paper reads the human single-substitution scores as noise; they and the rhesus combinations repeat poorly (rank correlation 0.3 to 0.4), indel scores repeat only for the top variants, rhesus substitutions well (0.9).

The subject of the first data set is SIVsab (simian immunodeficiency virus of sabaeus monkeys), single-cycle GFP reporter, in CRFK cells. As to the kind of experiment: enrichment among uninfected cells over input (fold); higher = stronger restriction. To be noted: library: human / rhesus combinations. The protocol: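 Pools of CRFK cells expressing variants of the TRIM5α v1 loop were challenged with the single-cycle reporter, sorted by GFP and sequenced; mean of two replicates.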
“MASGILVNVKEEVTCPICLELLTQPLSLDCGHSFCQACLTANHKKSMLDKGESSCPVCRISYQPENIRPNRHVANIVEKLREVKLSPEGQKVDHCARHGEKLLLFCQEDGKVICWLCERSQEHRGHHTFLTEEVAREYQVKLQAALEMLRQKQQEAEELEADIREEKASWKTQIQYDKTNVLADFEQLRDILDWEESNELQNLEKEEEDILKSLTNSETEMVQQTQSLRELISDLEHRLQGSVMELLQGVDGVIKRTENVTLKKPETFPKNQRRVFRAPDLKGMLEVFRELTDVRRYWVDVTVAPNNISCAVISEDKRQVSSPKPQIIYGARGTRFTFPTLVNFNYCTGILGSQSITSGKHYWEVDVSKKTAWILGVCAGFQPDAMCNIEKNENYQPKYGYWVIGLEEGVKCSAFQDSSFHTPSVPFIVPLSVIICPDRVGVFLDYEACTVSFFNITNHGFLIYKFSHCSFSQPVFPYLNPRKCGVPMTLCSPSS [human TRIM5α, 330-340 = GARGTRFTFPTLV]”: the enrichment was 0.123 ± 0.077. Turning to “MASGILVNVKEEVTCPICLELLTQPLSLDCGHSFCQACLTANHKKSMLDKGESSCPVCRISYQPENIRPNRHVANIVEKLREVKLSPEGQKVDHCARHGEKLLLFCQEDGKVICWLCERSQEHRGHHTFLTEEVAREYQVKLQAALEMLRQKQQEAEELEADIREEKASWKTQIQYDKTNVLADFEQLRDILDWEESNELQNLEKEEEDILKSLTNSETEMVQQTQSLRELISDLEHRLQGSVMELLQGVDGVIKRTENVTLKKPETFPKNQRRVFRAPDLKGMLEVFRELTDVRRYWVDVTVAPNNISCAVISEDKRQVSSPKPQIIYGARGTRFTFQSFTNFNYCTGILGSQSITSGKHYWEVDVSKKTAWILGVCAGFQPDAMCNIEKNENYQPKYGYWVIGLEEGVKCSAFQDSSFHTPSVPFIVPLSVIICPDRVGVFLDYEACTVSFFNITNHGFLIYKFSHCSFSQPVFPYLNPRKCGVPMTLCSPSS [human TRIM5α, 330-340 = GARGTRFTFQSFT]”, the enrichment was determined as 0.24 ± 0.13. Still for that read-out and setting: for “MASGILVNVKEEVTCPICLELLTQPLSLDCGHSFCQACLTANHKKSMLDKGESSCPVCRISYQPENIRPNRHVANIVEKLREVKLSPEGQKVDHCARHGEKLLLFCQEDGKVICWLCERSQEHRGHHTFLTEEVAREYQVKLQAALEMLRQKQQEAEELEADIREEKASWKTQIQYDKTNVLADFEQLRDILDWEESNELQNLEKEEEDILKSLTNSETEMVQQTQSLRELISDLEHRLQGSVMELLQGVDGVIKRTENVTLKKPETFPKNQRRVFRAPDLKGMLEVFRELTDVRRYWVDVTVAPNNISCAVISEDKRQVSSPKPQIIYGARGTRFTFQSFVNFNYCTGILGSQSITSGKHYWEVDVSKKTAWILGVCAGFQPDAMCNIEKNENYQPKYGYWVIGLEEGVKCSAFQDSSFHTPSVPFIVPLSVIICPDRVGVFLDYEACTVSFFNITNHGFLIYKFSHCSFSQPVFPYLNPRKCGVPMTLCSPSS [human TRIM5α, 330-340 = GARGTRFTFQSFV]” the value was 0.414 ± 0.027; for “MASGILVNVKEEVTCPICLELLTQPLSLDCGHSFCQACLTANHKKSMLDKGESSCPVCRISYQPENIRPNRHVANIVEKLREVKLSPEGQKVDHCARHGEKLLLFCQEDGKVICWLCERSQEHRGHHTFLTEEVAREYQVKLQAALEMLRQKQQEAEELEADIREEKASWKTQIQYDKTNVLADFEQLRDILDWEESNELQNLEKEEEDILKSLTNSETEMVQQTQSLRELISDLEHRLQGSVMELLQGVDGVIKRTENVTLKKPETFPKNQRRVFRAPDLKGMLEVFRELTDVRRYWVDVTVAPNNISCAVISEDKRQVSSPKPQIIYGARGTRFTFQSLTNFNYCTGILGSQSITSGKHYWEVDVSKKTAWILGVCAGFQPDAMCNIEKNENYQPKYGYWVIGLEEGVKCSAFQDSSFHTPSVPFIVPLSVIICPDRVGVFLDYEACTVSFFNITNHGFLIYKFSHCSFSQPVFPYLNPRKCGVPMTLCSPSS [human TRIM5α, 330-340 = GARGTRFTFQSLT]”, 0.208 ± 0.14. On the same count and under the same terms, for “MASGILVNVKEEVTCPICLELLTQPLSLDCGHSFCQACLTANHKKSMLDKGESSCPVCRISYQPENIRPNRHVANIVEKLREVKLSPEGQKVDHCARHGEKLLLFCQEDGKVICWLCERSQEHRGHHTFLTEEVAREYQVKLQAALEMLRQKQQEAEELEADIREEKASWKTQIQYDKTNVLADFEQLRDILDWEESNELQNLEKEEEDILKSLTNSETEMVQQTQSLRELISDLEHRLQGSVMELLQGVDGVIKRTENVTLKKPETFPKNQRRVFRAPDLKGMLEVFRELTDVRRYWVDVTVAPNNISCAVISEDKRQVSSPKPQIIYGARGTRFTFQSLVNFNYCTGILGSQSITSGKHYWEVDVSKKTAWILGVCAGFQPDAMCNIEKNENYQPKYGYWVIGLEEGVKCSAFQDSSFHTPSVPFIVPLSVIICPDRVGVFLDYEACTVSFFNITNHGFLIYKFSHCSFSQPVFPYLNPRKCGVPMTLCSPSS [human TRIM5α, 330-340 = GARGTRFTFQSLV]” the value was 0.184 ± 0.049. Still for that read-out and setting: for “MASGILVNVKEEVTCPICLELLTQPLSLDCGHSFCQACLTANHKKSMLDKGESSCPVCRISYQPENIRPNRHVANIVEKLREVKLSPEGQKVDHCARHGEKLLLFCQEDGKVICWLCERSQEHRGHHTFLTEEVAREYQVKLQAALEMLRQKQQEAEELEADIREEKASWKTQIQYDKTNVLADFEQLRDILDWEESNELQNLEKEEEDILKSLTNSETEMVQQTQSLRELISDLEHRLQGSVMELLQGVDGVIKRTENVTLKKPETFPKNQRRVFRAPDLKGMLEVFRELTDVRRYWVDVTVAPNNISCAVISEDKRQVSSPKPQIIYGARGTRFTFQTFTNFNYCTGILGSQSITSGKHYWEVDVSKKTAWILGVCAGFQPDAMCNIEKNENYQPKYGYWVIGLEEGVKCSAFQDSSFHTPSVPFIVPLSVIICPDRVGVFLDYEACTVSFFNITNHGFLIYKFSHCSFSQPVFPYLNPRKCGVPMTLCSPSS [human TRIM5α, 330-340 = GARGTRFTFQTFT]” the value was 0.171 ± 0.011. Regarding “MASGILVNVKEEVTCPICLELLTQPLSLDCGHSFCQACLTANHKKSMLDKGESSCPVCRISYQPENIRPNRHVANIVEKLREVKLSPEGQKVDHCARHGEKLLLFCQEDGKVICWLCERSQEHRGHHTFLTEEVAREYQVKLQAALEMLRQKQQEAEELEADIREEKASWKTQIQYDKTNVLADFEQLRDILDWEESNELQNLEKEEEDILKSLTNSETEMVQQTQSLRELISDLEHRLQGSVMELLQGVDGVIKRTENVTLKKPETFPKNQRRVFRAPDLKGMLEVFRELTDVRRYWVDVTVAPNNISCAVISEDKRQVSSPKPQIIYGARGTRFTFQTFVNFNYCTGILGSQSITSGKHYWEVDVSKKTAWILGVCAGFQPDAMCNIEKNENYQPKYGYWVIGLEEGVKCSAFQDSSFHTPSVPFIVPLSVIICPDRVGVFLDYEACTVSFFNITNHGFLIYKFSHCSFSQPVFPYLNPRKCGVPMTLCSPSS [human TRIM5α, 330-340 = GARGTRFTFQTFV]”, the enrichment is 0.0554 ± 0.04.

On to “MASGILVNVKEEVTCPICLELLTQPLSLDCGHSFCQACLTANHKKSMLDKGESSCPVCRISYQPENIRPNRHVANIVEKLREVKLSPEGQKVDHCARHGEKLLLFCQEDGKVICWLCERSQEHRGHHTFLTEEVAREYQVKLQAALEMLRQKQQEAEELEADIREEKASWKTQIQYDKTNVLADFEQLRDILDWEESNELQNLEKEEEDILKSLTNSETEMVQQTQSLRELISDLEHRLQGSVMELLQGVDGVIKRTENVTLKKPETFPKNQRRVFRAPDLKGMLEVFRELTDVRRYWVDVTVAPNNISCAVISEDKRQVSSPKPQIIYGARGTRFTFQTLTNFNYCTGILGSQSITSGKHYWEVDVSKKTAWILGVCAGFQPDAMCNIEKNENYQPKYGYWVIGLEEGVKCSAFQDSSFHTPSVPFIVPLSVIICPDRVGVFLDYEACTVSFFNITNHGFLIYKFSHCSFSQPVFPYLNPRKCGVPMTLCSPSS [human TRIM5α, 330-340 = GARGTRFTFQTLT]”, for which the enrichment amounted to 0.115 ± 0.054. On the same count and under the same terms, for “MASGILVNVKEEVTCPICLELLTQPLSLDCGHSFCQACLTANHKKSMLDKGESSCPVCRISYQPENIRPNRHVANIVEKLREVKLSPEGQKVDHCARHGEKLLLFCQEDGKVICWLCERSQEHRGHHTFLTEEVAREYQVKLQAALEMLRQKQQEAEELEADIREEKASWKTQIQYDKTNVLADFEQLRDILDWEESNELQNLEKEEEDILKSLTNSETEMVQQTQSLRELISDLEHRLQGSVMELLQGVDGVIKRTENVTLKKPETFPKNQRRVFRAPDLKGMLEVFRELTDVRRYWVDVTVAPNNISCAVISEDKRQVSSPKPQIIYGARGTRFTFQTLVNFNYCTGILGSQSITSGKHYWEVDVSKKTAWILGVCAGFQPDAMCNIEKNENYQPKYGYWVIGLEEGVKCSAFQDSSFHTPSVPFIVPLSVIICPDRVGVFLDYEACTVSFFNITNHGFLIYKFSHCSFSQPVFPYLNPRKCGVPMTLCSPSS [human TRIM5α, 330-340 = GARGTRFTFQTLV]” the value was 0.274 ± 0.073.

The same data set, now with this note: library: insertions and deletions.
In turn, “MASGILVNVKEEVTCPICLELLTQPLSLDCGHSFCQACLTANHKKSMLDKGESSCPVCRISYQPENIRPNRHVANIVEKLREVKLSPEGQKVDHCARHGEKLLLFCQEDGKVICWLCERSQEHRGHHTFLTEEVAREYQVKLQAALEMLRQKQQEAEELEADIREEKASWKTQIQYDKTNVLADFEQLRDILDWEESNELQNLEKEEEDILKSLTNSETEMVQQTQSLRELISDLEHRLQGSVMELLQGVDGVIKRTENVTLKKPETFPKNQRRVFRAPDLKGMLEVFRELTDVRRYWVDVTVAPNNISCAVISEDKRQVSSPKPQIIYGARGTRFVNFNYCTGILGSQSITSGKHYWEVDVSKKTAWILGVCAGFQPDAMCNIEKNENYQPKYGYWVIGLEEGVKCSAFQDSSFHTPSVPFIVPLSVIICPDRVGVFLDYEACTVSFFNITNHGFLIYKFSHCSFSQPVFPYLNPRKCGVPMTLCSPSS [human TRIM5α, 3-codon deletion at 336]” returned an enrichment of 0.854 ± 0.49.

With “MASGILVNVKEEVTCPICLELLTQPLSLDCGHSFCQACLTANHKKSMLDKGESSCPVCRISYQPENIRPNRHVANIVEKLREVKLSPEGQKVDHCARHGEKLLLFCQEDGKVICWLCERSQEHRGHHTFLTEEVAREYQVKLQAALEMLRQKQQEAEELEADIREEKASWKTQIQYDKTNVLADFEQLRDILDWEESNELQNLEKEEEDILKSLTNSETEMVQQTQSLRELISDLEHRLQGSVMELLQGVDGVIKRTENVTLKKPETFPKNQRRVFRAPDLKGMLEVFRELTDVRRYWVDVTVAPNNISCAVISEDKRQVSSPKPQIIYGARGTRGARGTRYQTFVNFNYCTGILGSQSITSGKHYWEVDVSKKTAWILGVCAGFQPDAMCNIEKNENYQPKYGYWVIGLEEGVKCSAFQDSSFHTPSVPFIVPLSVIICPDRVGVFLDYEACTVSFFNITNHGFLIYKFSHCSFSQPVFPYLNPRKCGVPMTLCSPSS [human TRIM5α, 6-codon duplication at 330]”, the enrichment turned out to be 10.5 ± 6.4. The same measure, in the same setting: for “MASGILVNVKEEVTCPICLELLTQPLSLDCGHSFCQACLTANHKKSMLDKGESSCPVCRISYQPENIRPNRHVANIVEKLREVKLSPEGQKVDHCARHGEKLLLFCQEDGKVICWLCERSQEHRGHHTFLTEEVAREYQVKLQAALEMLRQKQQEAEELEADIREEKASWKTQIQYDKTNVLADFEQLRDILDWEESNELQNLEKEEEDILKSLTNSETEMVQQTQSLRELISDLEHRLQGSVMELLQGVDGVIKRTENVTLKKPETFPKNQRRVFRAPDLKGMLEVFRELTDVRRYWVDVTVAPNNISCAVISEDKRQVSSPKPQIIYGARGTRGTRYQTFVNFNYCTGILGSQSITSGKHYWEVDVSKKTAWILGVCAGFQPDAMCNIEKNENYQPKYGYWVIGLEEGVKCSAFQDSSFHTPSVPFIVPLSVIICPDRVGVFLDYEACTVSFFNITNHGFLIYKFSHCSFSQPVFPYLNPRKCGVPMTLCSPSS [human TRIM5α, 3-codon duplication at 332]” the value was 0.957 ± 0.058.
